The list shows a part of the results. Single values of this set are uncertain. Values with irradiation are relative to irradiated vehicle.

This passage reports NF-kB reporter results from the supplement of paper PMC9174493.
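Further: viability correction based on the alamar blue assay, with concentrations leaving 10% survival or less dropped.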

This test deals with A549-Dual. In words: NF-kB reporter (SEAP) activity, viability-corrected, relative to vehicle (fold change vs vehicle); higher = more activation of STING-IRF / NF-kB immune response reporter. As to conditions: 10 µM; irradiation: 8 Gy/4 fr.
With `Nc1nc2c(ncn2COCCO)c(=O)[nH]1` [Aciclovir], the NF-kB reporter was 0.706. In the case of `O=[N+]([O-])c1cncn1CCN1CCOCC1` [Nimorazole] it was 0.989; in that of `NCC1OC(OC2C(N)CC(N)C(OC3OC(CO)C(O)C(N)C3O)C2O)C(O)C(O)C1O.O=S(=O)(O)O` (stereo not drawn) [Kanamycin sulfate], 0.809.

The compound `CSCCC(N)C(=O)O` (racemic) [DL-Methionine] gave an NF-kB reporter of 0.988.

In the case of `CC1Cc2ccccc2N1NC(=O)c1ccc(Cl)c(S(N)(=O)=O)c1` (stereo not drawn) [Indapamide], the NF-kB reporter is 0.988. In the case of `Nc1ncnc2c1ncn2C1OC(COP(=O)(O)OP(=O)([O-])OP(=O)([O-])O)C(O)C1O.[Na+].[Na+]` (stereo not drawn) [Adenosine disodium triphosphate] it was 1.03; in that of `Nc1ncnc2c1ncn2C1OC(CO)C(O)C1O.O` (stereo not drawn) [Vidarabine monohydrate], 0.784; in that of `CC(COc1ccccc1Cc1ccccc1)N1CCCCC1.O=P(O)(O)O` (stereo not drawn) [Benproperine phosphate], 0.865. In the case of `CCOc1ccc(Cc2cc(C34OCC(CO)(O3)C(O)C(O)C4O)ccc2Cl)cc1` (stereo not drawn) [Ertugliflozin] it was 0.817; in that of `CCCOC(C(=O)OC1CCN(C)CC1)(c1ccccc1)c1ccccc1.Cl` [Propiverine hydrochloride], 1.44.

For the compound `CC(=O)CCC(=O)O` [Levulinic acid], the NF-kB reporter was 0.929. Then `C#CC1(O)CCC2C3CCC4=CCCCC4C3CCC21C` (stereo not drawn) [Lynestrenol], with 0.711; and `CCCCCCCCc1ccc(CCC(N)(CO)CO)cc1.Cl` [Fingolimod (FTY720) HCl], with 0.701.
